Measured values as given in PubChem BioAssay AID759 (NMMLSC, 2007).
About 270 (0.14%) of roughly 190,000 compounds were called active. Inconclusive means that the source gave no clear call. Such entries were picked first, then a sample of the others.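 How the source made its calls: active means GTP binding activity at least 20% away from the 100% baseline, either lowered as inhibitor or raised as activator; inconclusive means flagged as likely green fluorescent, judged across all proteins in the well; inactive means the rest.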

What follows are compounds tested against GTPase HRas (Homo sapiens) (UniProt P01112) (assay: HRas wt fluorescent GTP binding changes, either direction – biochemical, wildtype, bead-based flow cytometry, multiplex, primary screen (AID 759;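 further: 0% = unlabeled GTP competition control and 100% = no-compound control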)). Conditions: GST-Ras wt beads, Bodipy-FL-GTP binding, at 10 µM, actives lie on both sides.
Chain of UniProt P01112 (P01112 whole entry, looked up): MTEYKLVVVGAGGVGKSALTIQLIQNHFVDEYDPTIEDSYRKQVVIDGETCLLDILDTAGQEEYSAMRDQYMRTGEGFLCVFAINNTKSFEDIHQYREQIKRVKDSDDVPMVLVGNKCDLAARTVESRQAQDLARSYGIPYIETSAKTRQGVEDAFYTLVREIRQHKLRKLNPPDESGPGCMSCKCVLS

GTP binding activity, active:
NS(=O)(=O)c1ccc(Nc2nc(-c3ccc(O)cc3O)cs2)cc1 78%
CNC(=O)C(C)NS(=O)(=O)c1ccc(F)cc1 (stereo not drawn) 40%
O=C(N/N=C/c1c(O)n(Cc2ccccc2)c(=O)c2ccccc12)c1cccnc1 78%

GTP binding activity, inactive:
O=C(NNC(=O)C(c1ccccc1)c1ccccc1)c1ccccn1 100%
S=C(NCCc1ccccc1)NC1CC1 104%
CCOc1cccc2cc(C(=O)NCCC3=CCCCC3)c(=O)oc12 95%
CNc1ccccc(-c2ccc3ccccc3n2)c1=O 98%
CN(C)CCN(C(=O)c1ccccc1Cl)c1nc2c(Cl)cccc2s1 101%
Cc1ccc(CN2CCN(Cc3ccc(C)s3)CC2CCO)cc1 (stereo not drawn) 99%
O=C(COc1ccc(S(=O)(=O)N2CCCC2)cc1)Nc1ccc2c(c1)OCCO2 100%
O=C(OC1CCCCC1)c1ccc(NC(=O)C2CCCCC2)cc1 97%
Cc1cc(C)nc(/N=C(\N)Nc2ccc(S(=O)(=O)Nc3nccc(C)n3)cc2)n1 90%
O=C(COC(=O)C1CCN(S(=O)(=O)c2ccccc2C(F)(F)F)CC1)NCc1ccc(F)cc1 98%
O=C(c1cccc(S(=O)(=O)N2CCc3ccccc32)c1)N1CCN(c2ccccn2)CC1 99%
Nc1nonc1C(=O)NCCN=Cc1ccccc1O 104%
O=C(NC(=S)NCC1CCCO1)c1cccc([N+](=O)[O-])c1 (stereo not drawn) 101%
COc1ccccc1NC(=O)c1ccc(NC(=O)CSc2n[nH]c(N)n2)cc1 96%
Cc1ccc(NC(=O)c2oc3ccccc3c2C)c([N+](=O)[O-])c1 101%
CC(NCc1cc(Br)ccc1OCC(=O)NCc1ccccc1)c1ccccc1 (stereo not drawn) 100%
CC(C)(c1ccccc1)c1ccc(OCC(O)CNC2CCN(Cc3ccccc3)CC2)cc1 (stereo not drawn) 96%
CCSc1nc(-c2cccs2)nc2ccccc12 96%

GTP binding activity, inconclusive:
O=C(COC(=O)c1ccc(Cl)c([N+](=O)[O-])c1)Nc1ccccc1OC(F)F 101%
C#Cc1ccc([C@@H]2C=C(C(=O)Nc3ccccc3)O[C@H](OCC)[C@H]2CCCO)cc1 93%
CC(C(=O)NC1CCCC1)N(C(=O)c1snc(C(N)=O)c1N)c1ccc2c(c1)OCCO2 (stereo not drawn) 108%
CCOC(=O)c1c(NC(=O)c2c(C)noc2C)sc2c1CCCCC2 108%
CCOc1ccccc1NC(=O)C(=O)N/N=C/c1ccc([N+](=O)[O-])cc1 97%
CC(=O)c1ccc(NC(=S)Nc2ccc3cn[nH]c3c2)cc1 91%
COCCNC(=O)Cn1c(=O)n(CCCCCC(=O)NCc2ccc3c(c2)OCO3)c(=O)c2sccc21 94%
Cc1ccc(Cn2nnnc2CN2CCC(NC(=O)C(C)(C)C)CC2)cc1 93%
CCN(CC)CCC(=O)c1ccc(F)cc1 83%
Cc1nn2c(-c3ccccc3)nnc2c2ccccc12 94%
COc1cc(-c2nc3c(c(C)nn3-c3ccccc3)c3cc(OC)c(OC)cc23)ccc1O 94%
CC(=O)c1cnc(Nc2nc(C)c3ccccc3n2)nc1C 101%
COCC(=O)Nc1ccc(Br)cc1 105%
CCOC(=O)c1cccc(NC(=O)CSc2nnnn2C)c1 108%
O=C(CSc1nc2ccccc2c(=O)n1CCCN1CCOCC1)c1c[nH]c2ccccc12 95%
CC(C)CCN(C(=O)Cc1ccc(Cl)c(Cl)c1)c1c(N)n(Cc2ccccc2)c(=O)[nH]c1=O 95%
O=C(NC(=S)Nc1ccc(N2CCOCC2)c(Cl)c1)c1cccs1 96%
Cc1cccc(NC(=O)CN2C(=O)N/C(=C/c3cc(C)n(C)c3C)C2=O)c1 95%
COc1ccc(CNC(=O)C2CC(=O)N(c3ccc(OCC(=O)N4C(C)CCCC4C)cc3)C2)cc1 (stereo not drawn) 181%
O=C(O)c1cc(N2C(=O)C3C4C=CC(C4)C3C2=O)ccc1NCc1cccnc1 (stereo not drawn) 103%
COc1ccccc1NC(=O)Cn1cc(C#N)c2ccccc21 103%
Cc1ccc(C(=O)NCCSC2CCCCC2)cc1S(=O)(=O)Nc1ccccc1 106%
CCN(CC)P(=O)(Nc1ccccc1Br)c1ccc(N(C)C)cc1NC(=O)c1ccco1 (stereo not drawn) 86%
O=C(Cn1c2ccc(F)cc2c2nc3n(c(=O)c21)CCS3)Nc1ccc(Cl)cc1F 94%
O=C(O)c1ccccc1C(=O)Nc1ccc(Br)c2cccnc12 89%
CCOC(=O)c1sc(Nc2nc3cc4c(cc3s2)OCO4)cc1C 251%
Cc1nn(C)c(C)c1N=Cc1c(O)ccc2ccccc12 98%
O=C(CSc1nc2ccccc2c(=O)n1CCCO)NCc1ccccc1 110%
Cc1cc(/C=C2\SC(=S)N(Cc3ccco3)C2=O)c(C)n1-c1cccnc1 153%
CCCNC(=O)CCn1c(-c2ccc(C)cc2)cc(C(=O)OCC)c1C 100%
Cc1nc(S(=O)(=O)N(C)Cc2ccccc2)c(C#N)c(C)c1Cl 104%
O=C(CCC(=O)N1CCN(S(=O)(=O)c2ccccc2)CC1)NC1CCCc2ccccc21 (stereo not drawn) 106%
COc1ccc(/C=N/NC(=O)Nc2cccc3nsnc23)cc1OC 70%
CCN(CC)CCNC(=O)CCn1c(=S)[nH]c2cc3c(cc2c1=O)OCO3 103%
Brc1ccccc1-n1nnc(-c2ccnc3ccccc23)n1 107%
COc1cc(/C=N/NC(=O)CSc2cc(C)c(Br)cc2C)ccc1O 96%
Cc1cccc(-n2c(SCc3ccc(C#N)cc3)nnc2-c2c[nH]c3ccccc23)c1 99%
